# Assay results taken from PubChem BioAssay AID1345082 (National Center for Advancing Translational Sciences (NCATS), 2018).
# The whole screen tested about 94,000 compounds, of which about 4,000 (4.3%) were called active. Inconclusive results, whose numbers are uncertain, are shown with a selection of clear calls. Calls come from the whole dose curve; as a rule, active = well fitted inhibition curve with a large enough effect; inconclusive = small, poorly fitted or top-dose-only effect; inactive = no such curve, though single readings can be large or run the other way. A potency beside an inconclusive call is a rough fit, not a confirmed value.
# Assay: Cytotoxic Profiling in NIH 3T3 Cell Line of Diverse Libraries Using Quantitative High-Throughput Screening; note: nearly all actives have a fitted effect of over 55% in size
# Details: NIH 3T3 viability, CellTiter-Glo ATP luminescence, 48-72 h; activity change, negative = cytotoxicity: at 96.7 µM (top of the series) unless noted; series mostly up to 96.7 µM
# Outline: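 Cells were seeded at 400 per well, treated with pin-transferred compound, and kept 48 or 72 hr at 37 °C before CellTiter-Glo addition and luminescence imaging of cellular ATP.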
# % is set by controls: 0 for no effect and ±100 for the full control effect; potency is the fitted concentration of half-maximal effect; tags give direction and shape of the fitted curve.
SMILES,Potency,outcome,"activity change, negative = cytotoxicity"
Cc1cccc(CN2CCCCCNC(=O)CC2c2ccccc2)c1 (stereo not drawn),active: 39.8 µM,–,–
O=C(c1ccc(C(F)(F)F)cc1)N1CCC2(CC1)C(=NC1CCCC1)NC(=O)N2c1cccnc1,active: 35.5 µM,–,–
CN(C)C[C@@H]1CN(S(C)(=O)=O)C[C@H]1NC(=O)C1(c2ccccc2)CCCC1,–,inactive,–
COc1ccc(-c2nnc(C[C@@H]3C[C@@H](C(C)C)[C@H](CNC(=O)c4cnccn4)C=C3C)o2)cc1,–,–,inactive: -6.28%
COc1ccc(Nc2ccnc(N3CCCC(C(=O)N4CCCC(C)C4)C3)n2)cc1 (stereo not drawn),active: 44.7 µM,–,–
COc1ccc2ccccc2c1CN1CCC2(CC1)[C@H](O)C[C@@H]2OCCN,"inconclusive: 56.2 µM [inhibitor, partial curve, poor fit]",–,–
CN(CC1CCN(CCc2cccc(F)c2)CC1)C(=O)COc1cccnc1,"inconclusive: 39.8 µM [inhibitor, full curve]",–,–
O=C(CCC1CCN(Cc2cc3ccccc3o2)CC1)NC1CCN(Cc2ccccc2)C1 (stereo not drawn),"inconclusive: 79.4 µM [inhibitor, single point]",–,–
COc1ccnc(-c2nnc3ccc(N(C)CCN(C)C)nn23)c1,active: 100 µM,–,–
O=C(Nc1ccnn1C1CCN(Cc2ccc(OC3CCCC3)cc2)CC1)C1CC1,"inconclusive: 50.1 µM [inhibitor, partial curve, poor fit]",–,–
COCCN1C(=O)c2ccccc2C(C(=O)Nc2nc3ccccc3[nH]2)C12CCCCC2 (stereo not drawn),"inconclusive: 70.8 µM [inhibitor, partial curve, poor fit]",–,–
Cc1nc(C2CC2)ncc1C(=O)N(C/C=C/c1ccccc1)C1CC1,"inconclusive: 56.2 µM [inhibitor, partial curve, poor fit]",–,–
O=C([C@@H]1C[C@H](Oc2cccnc2)CN1C(=O)c1cccnc1)N1CCCC1,–,–,inactive: -20.8%
COc1cccc(CN2CCOC[C@H](Oc3ccc(C(F)(F)F)cn3)C2)c1,"inconclusive: 89.1 µM [inhibitor, partial curve]",–,–
Cn1cc(-c2cnc3[nH]cc(CC(=O)NCc4ccc5c(c4)OCO5)c3c2)cn1,"inconclusive: 56.2 µM [inhibitor, partial curve, poor fit]",–,–
CCOc1ccccc1C1NC(=O)N(CC(=O)Nc2ccc(F)c(Cl)c2)C2=C1C(=O)OC2 (stereo not drawn),"inconclusive: 50.1 µM [inhibitor, partial curve, poor fit]",–,–
CO[C@H]1C[C@@H](O)C12CCN(C(=O)CCc1ccc(-c3cccs3)o1)CC2,"inconclusive: 35.5 µM [inhibitor, full curve, poor fit]",–,–
COc1ccc(-n2c(=O)[nH]c3cccnc32)cc1,–,–,inactive: -8.74% [at 138 µM]
CC(=O)N1CCN(c2nc(-c3c(C)noc3C)cc3cc(CN(C)C)oc23)CC1,"inconclusive: 89.1 µM [inhibitor, partial curve, poor fit]",–,–
Cc1ccc(NC(=O)N(C)CC2CCOC2)c(Cl)c1 (stereo not drawn),–,–,inactive: 1.32%
COCc1cc(=O)n(CC(=O)Nc2cc(OC)c(OC)c(OC)c2)c(N2CCOCC2)n1,–,–,inactive: -22.6%
C[C@]1(CO)[C@H]2Cc3sc(NC(=O)c4ccc(F)cc4)nc3[C@@H](CC(=O)Nc3ccccc3)[C@]2(C)CC[C@H]1O,–,–,inactive: -4.38%
CCOc1cccc(CN2CCC3(CC2)CN(C)CC3COC)c1 (stereo not drawn),"inconclusive: 44.7 µM [inhibitor, partial curve, poor fit]",–,–

SMILES,Potency,outcome,"activity change, negative = cytotoxicity"
Cc1cccc(NC(=O)C2c3ccccc3C(=O)N(CC(C)C)C23CCCC3)n1 (stereo not drawn),"inconclusive: 44.7 µM [inhibitor, partial curve, poor fit]",–,–
COCC(=O)N(C1CCOCC1)C1CCN(S(=O)(=O)c2ccccc2F)CC1,–,–,inactive: -37.5%
Cc1ccc(C(=O)N2CCC(n3cnnc3-c3ccccc3)CC2)cc1F,–,–,inactive: 2.66%
O=C(Cc1ccc(OC(F)(F)F)cc1)N1CC(CNc2cccnc2)C2(C1)CN(c1ccccc1)C2 (stereo not drawn),"inconclusive: 44.7 µM [inhibitor, partial curve, poor fit]",–,–
Cc1cnc(CC2CCN(S(=O)(=O)c3ccc4c(c3)CCC4)CC2)n1CC1CC1,"inconclusive: 44.7 µM [inhibitor, partial curve, poor fit]",–,–
Cc1cnc(C(=O)N2CC(Oc3ccccc3-c3nc(C4CC4)no3)C2)cn1,–,–,inactive: -22.6%
O=C(NCC1CCOCC1)Nc1cccc(Cl)c1,–,–,inactive: -7.43%
COc1ccc(-n2nc(C3CCCN([S+](=O)([O-])c4cccc(C(F)(F)F)c4)C3)[nH]c2=O)cc1 (stereo not drawn),"inconclusive: 50.1 µM [inhibitor, single point]",–,–
COc1ccccc1Nc1ncc2c(n1)CN([S+](=O)([O-])c1ccccc1)CCN2,"inconclusive: 89.1 µM [inhibitor, partial curve, poor fit]",–,–
COc1cccc(C(=O)NC2CCN(c3nccc(Nc4ccc(C)cc4)n3)CC2)c1,active: 39.8 µM,–,–
OC1(CN2CCN(C/C=C/c3ccccc3)CC2)CNCCOC1 (stereo not drawn),"inconclusive: 44.7 µM [inhibitor, partial curve, poor fit]",–,–
COc1ncccc1Nc1ncc(-c2ccccc2)c2c1OCC2,–,–,inactive: -15% [at 138 µM]
COc1cccc(CNC(=O)Cn2c(N(C)Cc3ccccc3)nc(C)cc2=O)c1OC,"inconclusive: 44.7 µM [inhibitor, partial curve, poor fit]",–,–
Cc1oc2c(c1C(=O)N1CCSCC1)CN(Cc1cccc(F)c1)CC2,–,–,inactive: -21.3%
COc1ccc(C(=O)N2CCC3(CC2)CC(O)CCO3)c(OC)c1 (stereo not drawn),–,–,inactive: 3.82%
COC(=O)c1ccc2nc(C[C@@H]3C[C@@H](C(C)C)[C@H](CN(C)C)C=C3C)[nH]c2c1,active: 70.8 µM,–,–
O=C(c1cccs1)N1CCC(O)(c2ccccc2)[C@H](N2CCCC2)C1 (stereo partly drawn),"inconclusive: 50.1 µM [inhibitor, partial curve, poor fit]",–,–
Cc1cc(C)c(CNC(=O)c2cc(-c3ccc(CN(C)C)cc3)cc3ncn(C)c23)c(=O)[nH]1,"inconclusive: 70.8 µM [inhibitor, single point]",–,–
COc1cc(NC(=O)Cn2c(-c3cnccn3)nc(C)c(C)c2=O)cc(OC)c1OC,–,–,inactive: -13.5%
O=C(Nc1ccc2c(c1)OCCO2)N1CCC2(CC1)CC(N1CCOCC1)CCO2 (stereo not drawn),–,–,inactive: -12.6%
CCC(=O)NCCC1CCN(C(=O)Nc2ccc(C)cc2)CC1,–,inactive,–
COc1cccc(CN2C(=O)OC3(CCN(C(=O)Cc4ccccn4)CC3)C2(C)c2cccnc2)c1 (stereo not drawn),active: 35.5 µM,–,–
COCCC1(NC(=O)c2ccccc2)CCN(Cc2cn[nH]c2-c2cccs2)CC1,–,–,inactive: -18.8%

SMILES,Potency,outcome,"activity change, negative = cytotoxicity"
O=C(c1ccc(F)cc1)N1CCCC(C(=O)N2CCC(N3CCCC3=O)CC2)C1 (stereo not drawn),–,–,inactive: -2.43%
O=C(Nc1ccc(Cl)cc1)N1CCCC(C(=O)N2CCC(c3ccccc3)CC2)C1 (stereo not drawn),"inconclusive: 50.1 µM [inhibitor, partial curve, poor fit]",–,–
CN1CC(=O)N(C2CCC2)Cc2c(NCc3cccs3)ncnc21,"inconclusive: 89.1 µM [inhibitor, partial curve]",–,–
O=C(Nc1cccc(Cl)c1)c1ccc2nc(-c3ccncc3)oc2c1,"inconclusive: 20 µM [inhibitor, full curve]",–,–
COc1ccc(CCC(=O)N2CCC(c3noc(COc4ccc(C)cc4)n3)C2)cc1 (stereo not drawn),"inconclusive: 50.1 µM [inhibitor, partial curve, poor fit]",–,–
O=C(NCCc1cnc[nH]1)c1ccc(-c2ncc3cnc(-c4cccc(F)c4)cn23)cc1,active: 50.1 µM,–,–
Cc1nn(C)c(C)c1CCN(C)C(=O)CCC1CCN(C(=O)c2ccccc2F)CC1,–,–,inactive: -12%
O=C1CCCCC(Cc2ccccc2)(C(=O)N2CCN(c3ccccn3)CC2)N1 (stereo not drawn),–,–,inactive: -30.3%
CNC(=O)c1cc(-c2cccc(OC)c2)nc2c1cnn2C,"inconclusive: 50.1 µM [inhibitor, partial curve, poor fit]",–,–
CCNC(=O)[C@@H]1C[C@H](NC(=O)c2ccc[nH]2)CN1C(=O)c1csc(C)n1,–,–,inactive: -4.74%
CCOc1ccccc1C1NC(=O)N(CC(=O)NCc2ccccc2Cl)C2=C1C(=O)OC2 (stereo not drawn),"inconclusive: 50.1 µM [inhibitor, single point]",–,–
CN1CCN(C(=O)N2CCCC(CNS(=O)(=O)c3cccs3)C2)CC1 (stereo not drawn),–,–,inactive: -21.9%
Cc1ccc(C(=O)N2CC(Oc3ccc(F)cc3C)C2)cc1,"inconclusive: 22.4 µM [inhibitor, partial curve, poor fit]",–,–
COc1ccccc1-c1cccc(CN2CCC(NC(=O)NC(C)C)CC2)c1,"inconclusive: 50.1 µM [inhibitor, partial curve, poor fit]",–,–
FC(F)(F)c1ccc2nc([C@H]3CCN(CC4CC4)C3)[nH]c2c1,"inconclusive: 100 µM [inhibitor, partial curve]",–,–
COc1ccc2c(c1)CCN=C2C[C@H]1CN(C(=O)C(C)(C)C)CC[C@H]1CC(=O)O,"inconclusive: 100 µM [inhibitor, partial curve, poor fit]",–,–
O=C1CO[C@H]2CCN(Cc3cccc(OC(F)(F)F)c3)CC[C@@H]2N1Cc1ccccc1,"inconclusive: 50.1 µM [inhibitor, partial curve, poor fit]",–,–
CCC1(N2CCN(C(=O)c3ccc(Cl)s3)CC2)CCN(S(C)(=O)=O)C1 (stereo not drawn),–,–,inactive: -26.6%
Cc1nn(-c2ccccc2)c(Oc2ccc(F)cc2F)c1CCC(=O)NCC1CCCO1 (stereo not drawn),"inconclusive: 50.1 µM [inhibitor, partial curve, poor fit]",–,–
Cc1ccc(NC(=O)N2CCC(CCNC(=O)C3CC3)CC2)cc1,–,–,inactive: -18.8%
CC(=O)NC1CCCc2c1[nH]c1ccc(Cl)cc21 (stereo not drawn),"inconclusive: 79.4 µM [inhibitor, partial curve, poor fit]",–,–
CN(C)Cc1ccc2c(c1)c(OC(C)(C)C(=O)NC1CC1)nn2Cc1ccccc1,"inconclusive: 100 µM [inhibitor, partial curve, poor fit]",–,–
